Details: Gallus gallus; pH 6.4; Thermal; CD; Potassium phosphate 66 mM; reversible: yes

Q: For “Lysozyme C wild type (sequence left out)”, which Tm is on record?
A: 74 °C
